Laboratory results as given in US20210309710A1 (DAEWOONG PHARMACEUTICAL, published 2021).
Substitutions are numbered along the chain they refer to.

B1: ABD-fused insulin analogue 1 (ligand)
chain 1: [about 40 residues not given here]
chain 2: GILEQCCTSICSLYQLENYCNGGGGSGGGGSLAEAKEAANAELDSYGVSDFYKKLIDKAKTVEGVEALKDAILAALP
notes: B chain and A chain are joined by disulfide bonds; also called long-acting insulin analogue derivative 1
B2: ABD-fused insulin analogue 2 (ligand)
chain 1: [about 40 residues not given here]
chain 2: B1 chain 2 with L3V, T8D
notes: Built as the active two-chain form (fusion tag and C chain removed by clostripain and CpB); also called long-acting insulin analogue derivative 2
B3: ABD-fused insulin analogue 3 (ligand)
chain 1: [about 40 residues not given here]
chain 2: B1 chain 2 with L3V, I10K
notes: Built as the active two-chain form (fusion tag and C chain removed by clostripain and CpB); also called long-acting insulin analogue derivative 3
B4: ABD-fused insulin analogue 4 (ligand)
chain 1: [about 40 residues not given here]
chain 2: B1 chain 2 with L3V, Y14E
notes: Built as the active two-chain form (fusion tag and C chain removed by clostripain and CpB); also called long-acting insulin analogue derivative 4
B5: ABD-fused insulin analogue 5 (ligand)
chain 1: [about 40 residues not given here]
chain 2: B1 chain 2 with L3V, Y19F
notes: Built as the active two-chain form (fusion tag and C chain removed by clostripain and CpB); also called long-acting insulin analogue derivative 5

Legend:
[1] = biological target: Insulin receptor; experiment: SPR (BIACORE 3000), insulin receptor immobilized on CM5 chip
Protocol: (§1) To measure the binding affinities of native insulin and ABD-fused insulin analogues for insulin receptor, a surface plasmon resonance (SPR, BIACORE 3000, GE healthcare) analysis method was used. Insulin receptor was immobilized on a CM5 chip by an amine coupling method, and each of native insulin and ABD-fused insulin analogues, diluted to five or more concentrations, was bound thereto, and the affinities thereof for the insulin receptor were measured.

[2] = biological target: Recombinant human serum albumin (human); experiment: SPR (BIACORE 3000), recombinant HSA immobilized on CM5 chip
Protocol: To measure the binding affinities of the ABD-fused insulin analogue proteins for albumin, a surface plasmon resonance (SPR, BIACORE 3000, GE healthcare) analysis method was used. Recombinant human serum albumin was immobilized on a CM5 chip by an amine coupling method, and the ABD or ABD-fused insulin analogues diluted to five or more concentrations were bound thereto, and the affinities thereof for the human serum albumin were measured.

[3] = biological target: Insulin receptor; experiment: SPR (BIACORE 3000), insulin receptor immobilized on CM5 chip; reference native insulin
Protocol: as §1

| Binder | kon [1] | Kd [2] | koff [2] | kon [2] | Kd [1] | koff [1] | affinity relative to native insulin [3] |
| --- | --- | --- | --- | --- | --- | --- | --- |
| B1 | 85400 M⁻¹ s⁻¹ | 52.1 pM | 2.37e-05 s⁻¹ | 454000 M⁻¹ s⁻¹ | – | – | – |
| B2 | 43800 M⁻¹ s⁻¹ | 71.1 pM | 3.14e-05 s⁻¹ | 442000 M⁻¹ s⁻¹ | 72000 pM | 0.00315 s⁻¹ | – |
| B3 | 25200 M⁻¹ s⁻¹ | 174 pM | 4.36e-05 s⁻¹ | 251000 M⁻¹ s⁻¹ | 86500 pM | 0.00218 s⁻¹ | ~19.4% |
| B4 | 28200 M⁻¹ s⁻¹ | 71.7 pM | 3.32e-05 s⁻¹ | 464000 M⁻¹ s⁻¹ | 46500 pM | 0.00131 s⁻¹ | – |
| B5 | 40700 M⁻¹ s⁻¹ | 96 pM | 3.13e-05 s⁻¹ | 326000 M⁻¹ s⁻¹ | 57500 pM | 0.00234 s⁻¹ | – |
